{
  "source": "the supplement of paper PMC8728848",
  "binders": {"B1": {"name": "Gal 9 (Homo sapiens), O00182 (protein)", "chain": "MAFSGSQAPYLSPAVPFSGTIQGGLQDGLQITVNGTVLSSSGTRFAVNFQTGFSGNDIAFHFNPRFEDGGYVVCNTRQNGSWGPEERKTHMPFQKGMPFDLCFLVQSSDFKVMVNGILFVQYFHRVPFHRVDTISVNGSVQLSYISFQNPRTVPVQPAFSTVPFSQPVCFPPRPRGRRQKPPGVWPANPAPITQTVIHTVQSAPGQMFSTPAIPPMMYPHPAYPMPFITTILGGLYPSKSILLSGTVLPSAQRFHINLCSGNHIAFHLNPRFDENAVVRNTQIDNSWGSEERSLPRKMPFVRGQSFSVWILCEAHCLKVAVDGQHLFEYYHRLRNLPTINRLEVGGDIQLTHVQT"}},
  "experiment_in_all_cases": "glycan array binding signal (z-score within array); higher = stronger binding",
  "settings_in_all_cases": "glycan notation: IUPAC condensed, linker removed",
  "key": {"[1]": {"molecular_target": "Neu5Ac(a2-8)Neu5Gc(a2-3)Gal(b1-4)GlcNAc", "outline": "(§1)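 Arrays were curated from the Consortium for Functional Glycomics database, 3228 in total, and kept only where the protein sequence was available. Binding is expressed as a within-array Z-score. This score was averaged across arrays of the same protein sequence at different concentrations or buffers and across linkers, and negative values can be read as non-binding.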"}, "[2]": {"molecular_target": "Neu5Ac(b2-6)Gal(b1-4)GlcNAc", "outline": "as §1"}, "Neu5Ac(b2-6)GalNAc": {"molecular_target": "Neu5Ac(b2-6)GalNAc", "outline": "as §1"}, "[3]": {"molecular_target": "Neu5Ac9Ac(a2-3)Gal(b1-3)GlcNAc", "outline": "as §1"}, "[4]": {"molecular_target": "Neu5Ac9Ac(a2-3)Gal(b1-4)GlcNAc", "outline": "as §1"}, "[5]": {"molecular_target": "Neu5Ac9Ac(a2-6)Gal(b1-4)GlcNAc", "outline": "as §1"}, "[6]": {"molecular_target": "Neu5Gc(a2-3)Gal(b1-3)GlcNAc", "outline": "as §1"}, "[7]": {"molecular_target": "Neu5Gc(a2-3)Gal(b1-3)[Fuc(a1-4)]GlcNAc", "outline": "as §1"}, "Neu5Gc(a2-3)Gal(b1-4)Glc": {"molecular_target": "Neu5Gc(a2-3)Gal(b1-4)Glc", "outline": "as §1"}, "[8]": {"molecular_target": "Neu5Gc(a2-3)Gal(b1-4)GlcNAc", "outline": "as §1"}, "[9]": {"molecular_target": "Neu5Gc(a2-3)Gal(b1-4)GlcNAc(b1-3)Gal(b1-4)GlcNAc(b1-2)Man(a1-3)[Neu5Gc(a2-3)Gal(b1-4)GlcNAc(b1-3)Gal(b1-4)GlcNAc(b1-2)Man(a1-6)]Man(b1-4)GlcNAc(b1-4)GlcNAc", "outline": "as §1"}, "[10]": {"molecular_target": "Neu5Gc(a2-3)Gal(b1-4)[Fuc(a1-3)]GlcNAc", "outline": "as §1"}, "[11]": {"molecular_target": "Neu5Gc(a2-6)Gal(b1-4)GlcNAc", "outline": "as §1"}, "Neu5Gc(a2-6)GalNAc": {"molecular_target": "Neu5Gc(a2-6)GalNAc", "outline": "as §1"}, "[12]": {"molecular_target": "Neu5Gc(a2-8)Neu5Ac(a2-3)Gal(b1-4)GlcNAc", "outline": "as §1"}, "[13]": {"molecular_target": "Neu5Gc(a2-8)Neu5Gc(a2-3)Gal(b1-4)GlcNAc", "outline": "as §1"}, "[14]": {"molecular_target": "Neu5Gc(a2-8)Neu5Gc(a2-3)Gal(b1-4)GlcNAc(b1-3)Gal(b1-4)GlcNAc", "outline": "as §1"}, "[15]": {"molecular_target": "Neu5Gc(a2-8)Neu5Gc(a2-6)Gal(b1-4)GlcNAc", "outline": "as §1"}, "[16]": {"molecular_target": "Neu5Gc(b2-6)Gal(b1-4)GlcNAc", "outline": "as §1"}},
  "note": "This is one part of the list.",
  "data": [
    {"binder": "B1", "values": [
      {"measurement": "glycan array binding signal (z-score)", "setting": "[1]", "value": -0.265},
      {"measurement": "glycan array binding signal (z-score)", "setting": "[2]", "value": -0.346},
      {"measurement": "glycan array binding signal (z-score)", "setting": "Neu5Ac(b2-6)GalNAc", "value": -0.328},
      {"measurement": "glycan array binding signal (z-score)", "setting": "[3]", "value": -0.319},
      {"measurement": "glycan array binding signal (z-score)", "setting": "[4]", "value": -0.197},
      {"measurement": "glycan array binding signal (z-score)", "setting": "[5]", "value": -0.325},
      {"measurement": "glycan array binding signal (z-score)", "setting": "[6]", "value": -0.244},
      {"measurement": "glycan array binding signal (z-score)", "setting": "[7]", "value": -0.321},
      {"measurement": "glycan array binding signal (z-score)", "setting": "Neu5Gc(a2-3)Gal(b1-4)Glc", "value": -0.303},
      {"measurement": "glycan array binding signal (z-score)", "setting": "[8]", "value": -0.206},
      {"measurement": "glycan array binding signal (z-score)", "setting": "[9]", "value": -0.271},
      {"measurement": "glycan array binding signal (z-score)", "setting": "[10]", "value": -0.312},
      {"measurement": "glycan array binding signal (z-score)", "setting": "[11]", "value": -0.325},
      {"measurement": "glycan array binding signal (z-score)", "setting": "Neu5Gc(a2-6)GalNAc", "value": -0.318},
      {"measurement": "glycan array binding signal (z-score)", "setting": "[12]", "value": -0.292},
      {"measurement": "glycan array binding signal (z-score)", "setting": "[13]", "value": -0.298},
      {"measurement": "glycan array binding signal (z-score)", "setting": "[14]", "value": -0.282},
      {"measurement": "glycan array binding signal (z-score)", "setting": "[15]", "value": -0.269},
      {"measurement": "glycan array binding signal (z-score)", "setting": "[16]", "value": -0.305}
    ]}
  ]
}
